{
  "source": "PubChem BioAssay AID2147",
  "about": "(National Center for Advancing Translational Sciences (NCATS), 2009)",
  "note": "About 3,600 (1.6%) of roughly 230,000 compounds were called active. Inconclusive means that the source gave no clear call. Such entries were picked first, then a sample of the others. The call rests on the fitted dose curve; in most records, active means well fitted inhibition curve with a large enough effect (not every such curve was filed as active); inconclusive means small, poorly fitted or top-dose-only effect, or another doubt; inactive means no such curve, though single readings can be large or run the other way. Potencies beside an inconclusive call are fits to weak or partial responses and may not hold up. Further: nearly all actives have a fitted effect of over 50% in size. Potency means the concentration at half of the fitted maximal effect; tags describe the fitted curve by direction and shape.",
  "data": [
    {"molecular_target": "Lysine-specific demethylase 4E (Homo sapiens) (UniProt B2RXH2)", "sequence (B2RXH2 whole entry, looked up, the tested form may be a part)": "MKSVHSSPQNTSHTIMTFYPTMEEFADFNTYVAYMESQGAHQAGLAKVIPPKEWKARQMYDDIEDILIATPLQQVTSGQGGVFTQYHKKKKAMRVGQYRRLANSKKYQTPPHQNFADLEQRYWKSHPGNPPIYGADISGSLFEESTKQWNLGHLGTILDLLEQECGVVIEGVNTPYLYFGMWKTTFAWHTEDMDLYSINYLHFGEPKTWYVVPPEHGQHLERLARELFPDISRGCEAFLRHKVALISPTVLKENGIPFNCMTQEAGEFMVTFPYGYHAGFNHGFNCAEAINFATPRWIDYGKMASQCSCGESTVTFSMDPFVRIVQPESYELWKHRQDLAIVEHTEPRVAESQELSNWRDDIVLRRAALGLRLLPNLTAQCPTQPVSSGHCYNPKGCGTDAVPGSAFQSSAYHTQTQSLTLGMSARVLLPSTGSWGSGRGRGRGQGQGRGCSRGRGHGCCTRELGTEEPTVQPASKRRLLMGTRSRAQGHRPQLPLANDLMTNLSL", "assay": "qHTS Assay for Inhibitors of Human Jumonji Domain Containing 2E (JMJD2E)", "conditions": "JMJD2E catalytic domain, FDH-coupled NADH fluorescence (FDH is formaldehyde dehydrogenase); series mostly up to 57.1 µM", "values": [
      {"compound": "O=C(CSc1ccncc1)Nc1ccc2ccccc2c1", "Potency": "inconclusive: 35.5 µM [inhibitor, single point]"},
      {"compound": "COc1ccccc1N(C)S(=O)(=O)c1ccc(C(=O)OCC(=O)N(C)c2ccccc2)cc1", "Potency": "inactive"},
      {"compound": "CCOc1cc(/C=N/N2C(=O)NC3(CCCCC3)C2=O)cc(Br)c1O", "Potency": "inconclusive: 28.2 µM [inhibitor, single point]"},
      {"compound": "COc1ccc(C(=O)Nc2cccc3c2C(=O)NC3=O)cc1S(=O)(=O)N1CCOCC1", "Potency": "inconclusive: 35.5 µM [inhibitor, partial curve]"},
      {"compound": "Cc1csc(NC(=O)CSc2nnc(-c3ccc(S(=O)(=O)N4CCCC4)cc3)o2)n1", "Potency": "inactive"},
      {"compound": "CC(c1ccco1)N(C(=O)c1ccccc1NS(=O)(=O)c1cccc([N+](=O)[O-])c1)c1ccccn1", "note": "(stereo not drawn)", "Potency": "inconclusive: 39.8 µM [inhibitor, single point]"},
      {"compound": "O=S(=O)(Nc1ccc(-c2csc(-c3ccccc3)n2)cc1)c1ccccc1", "Potency": "inconclusive: 39.8 µM [inhibitor, single point]"},
      {"compound": "CC(C)C(NS(=O)(=O)c1ccc2c(c1)OCCCO2)C(=O)O", "note": "(stereo not drawn)", "Potency": "inactive"},
      {"compound": "COC(C)(C)[C@H](O)COc1c2ccoc2cc2oc(=O)ccc12", "Potency": "inconclusive: 39.8 µM [inhibitor, single point]"},
      {"compound": "CCOC(=O)c1c(NC(=O)c2nn(CC)cc2Br)c(C#N)cn1-c1ccccc1", "Potency": "inconclusive: 39.8 µM [inhibitor, single point]"},
      {"compound": "COc1cc2c(cc1OC)-c1cc(NC3CCCCCC3)nc(=O)n1CC2", "Potency": "inconclusive: 20 µM [inhibitor, partial curve]"},
      {"compound": "CSc1ccccc1NC(=S)N/N=C/c1cccn1Cc1cccc(C)c1", "Potency": "inactive"},
      {"compound": "CCCn1c(-c2ccc(F)cc2)nc2c(NCCN(C(C)C)C(C)C)nc(C)nc21", "Potency": "inconclusive: 31.6 µM [inhibitor, partial curve]"},
      {"compound": "Cc1ccc(CN2CCN(/N=C/c3cccs3)CC2)cc1", "Potency": "inactive"},
      {"compound": "CC(C)CNC(=O)c1ccccc1NC(=O)CCSc1ccccc1", "Potency": "inconclusive: 28.2 µM [inhibitor, single point]"},
      {"compound": "Cc1ccc(C(=O)n2nc(-c3ccco3)nc2N)cc1", "Potency": "inconclusive: 35.5 µM [inhibitor, single point]"},
      {"compound": "CCN1c2ccccc2-c2nc3ccccc3n2C1c1cccnc1", "note": "(stereo not drawn)", "Potency": "inconclusive: 28.2 µM [inhibitor, partial curve]"},
      {"compound": "Cn1c(=O)c([N+](=O)[O-])c(NCc2ccccc2Cl)c2ccccc21", "Potency": "inactive"},
      {"compound": "COc1c2ccoc2c(OC[C@@H](O)C(C)(C)O)c2oc(=O)ccc12", "Potency": "inconclusive: 39.8 µM [inhibitor, single point]"},
      {"compound": "CCCCCC(=O)Nc1cccc(C2=NOC3(C2)C[C@H](C(N)=O)N(C(=O)CC#N)C3)c1", "note": "(stereo partly drawn)", "Potency": "inactive"},
      {"compound": "O=c1[nH][nH]c(-c2ccccc2O)c1C(C[N+](=O)[O-])c1cccc(Cl)c1", "note": "(stereo not drawn)", "Potency": "inactive"},
      {"compound": "CN(C(=O)c1cccc(C#N)c1)c1nnc(-c2ccccn2)s1", "Potency": "inconclusive: 39.8 µM [inhibitor, single point]"},
      {"compound": "CC(C)c1ccc2c(c1)C1Cc3ccccc3C1N2", "note": "(stereo not drawn)", "Potency": "inconclusive: 35.5 µM [inhibitor, single point]"},
      {"compound": "Cc1cccc(Cn2c(O)c(N=NC(=S)Nc3ccccc3F)c3ccccc32)c1", "Potency": "inactive"},
      {"compound": "COc1ccc(NC2=CC(=O)N(C)C2=O)cc1", "Potency": "inconclusive: 39.8 µM [inhibitor, single point]"},
      {"compound": "O=C(Nc1cc(S(=O)(=O)N2CCCCC2)ccc1O)c1ccccc1NS(=O)(=O)c1ccc(F)cc1", "Potency": "inconclusive: 15.8 µM [inhibitor, partial curve]"},
      {"compound": "O=C(CN1CCCCC1)Nc1c2c(nc3ccccc13)N(c1ccccc1)CC2", "Potency": "inconclusive: 17.8 µM [inhibitor, partial curve]"},
      {"compound": "CCn1c(C)cc2c(c1=O)C(c1ccncc1)C(C#N)=C(N)O2", "note": "(stereo not drawn)", "Potency": "inconclusive: 39.8 µM [inhibitor, single point]"},
      {"compound": "C=CCn1c(=NC(=O)c2ccc(S(=O)(=O)N3CCc4ccccc4C3)cc2)sc2cc(S(N)(=O)=O)ccc21", "Potency": "inconclusive: 31.6 µM [inhibitor, partial curve]"},
      {"compound": "CCOC(=O)c1ccc2nc(C(F)(F)F)[nH]c(=O)c2c1", "Potency": "inconclusive: 31.6 µM [inhibitor, partial curve]"},
      {"compound": "Cc1ccc(/C=N/N2CCN(Cc3cccc4ccccc34)CC2)s1", "Potency": "inactive"},
      {"compound": "CCOC(=O)Nc1ccc(=O)n(Cc2c(Cl)cccc2Cl)c1", "Potency": "inconclusive: 35.5 µM [inhibitor, partial curve]"},
      {"compound": "CC1(C)OC2OC(C(=O)N/N=C/c3cc(Br)ccc3O)C3OC(C)(C)OC3C2O1", "note": "(stereo not drawn)", "Potency": "active: 28.2 µM"},
      {"compound": "CCOC(=O)N1CCN(S(=O)(=O)c2ccc3[nH]cc(C(=O)O)c(=O)c3c2)CC1", "Potency": "inconclusive: 35.5 µM [inhibitor, single point]"},
      {"compound": "CCOC(=O)C1=C(C)NC(C)=C(C(=O)OCC)C1C(=O)OC1CCOC1=O", "note": "(stereo not drawn)", "Potency": "inconclusive: 28.2 µM [inhibitor, partial curve]"},
      {"compound": "Cc1ccc2[nH]c(=O)c(N3CCOCC3)c(-c3ccccc3)c2c1", "Potency": "inconclusive: 35.5 µM [inhibitor, single point]"},
      {"compound": "COC(=O)[C@@H]1C[C@@]2(O)[C@@H](O)[C@@H](O)[C@@H](O)C[C@H]2N1Cc1ccc(C)s1", "Potency": "inconclusive: 28.2 µM [inhibitor, single point]"},
      {"compound": "CCN(CC)S(=O)(=O)c1ccc(OC)c(NC(=O)C(C)Oc2ccc3c(C)cc(=O)oc3c2)c1", "note": "(stereo not drawn)", "Potency": "inconclusive: 28.2 µM [inhibitor, partial curve]"},
      {"compound": "Fc1ccc(-c2cc(C(F)(F)F)nc(NCc3cccs3)n2)cc1", "Potency": "inconclusive: 25.1 µM [inhibitor, partial curve]"},
      {"compound": "CCOCCCn1c(=NC(C)=O)c(C(=O)OCC)cc2c(=O)n3ccccc3nc21", "Potency": "inconclusive: 31.6 µM [inhibitor, partial curve]"},
      {"compound": "c1ccc(-n2ncc3c(NCc4cccnc4)ncnc32)cc1", "Potency": "inconclusive: 25.1 µM [inhibitor, single point]"},
      {"compound": "CCN(CC)CCCNC(=S)N(Cc1cccnc1)Cc1cc2cccc(C)c2[nH]c1=O", "Potency": "inconclusive: 39.8 µM [inhibitor, single point]"},
      {"compound": "Nc1nc(-c2ccc3c(c2)CCC(=O)N3)cs1", "Potency": "inactive"},
      {"compound": "CCOC(=O)C1=C(C)N(Cc2ccccc2)C(=O)NC1c1ccc(OC)cc1", "note": "(stereo not drawn)", "Potency": "inactive"},
      {"compound": "C=CCn1c(=NC(=O)C2CCCCC2)sc2cc(NC(C)=O)ccc21", "Potency": "inconclusive: 31.6 µM [inhibitor, single point]"},
      {"compound": "O=[N+]([O-])c1ccc(-n2nnnc2CN2CCCCC2)cc1", "Potency": "inactive"},
      {"compound": "C=CCNC(=S)NNc1nc(Nc2ccccc2)nc(N2CCCCC2)n1", "Potency": "inactive"},
      {"compound": "CC(=O)Nc1ccc(/C(C)=N\\NC(=O)c2ccc(-c3ccccc3)cc2)cc1", "Potency": "inactive"},
      {"compound": "CC(=O)NCc1ccc(S(=O)(=O)N/N=C/c2ccccc2)cc1", "Potency": "inconclusive: 39.8 µM [inhibitor, single point]"},
      {"compound": "CC(C)CN1C(=O)C(=O)N(CC(=O)N2CCC(Cc3ccccc3)CC2)C1=O", "Potency": "inconclusive: 39.8 µM [inhibitor, single point]"},
      {"compound": "O=C(NCCc1ccccc1)c1cc(=O)[nH]c2ccccc12", "Potency": "inconclusive: 35.5 µM [inhibitor, single point]"},
      {"compound": "CN(C(=O)/C=C/c1ccco1)c1ccccc1C(=O)O", "Potency": "inconclusive: 31.6 µM [inhibitor, partial curve]"},
      {"compound": "C=CCNC(=O)c1ccc(-c2cccc([N+](=O)[O-])c2)o1", "Potency": "inactive"},
      {"compound": "CCc1c(C)c2cc(Cl)c(O)c(CN3CCCCC3)c2oc1=O", "Potency": "inconclusive: 28.2 µM [inhibitor, partial curve]"},
      {"compound": "COc1ccc(C(=O)NCc2nnc(SCC(=O)Nc3cccc(F)c3)o2)cc1", "Potency": "inactive"},
      {"compound": "COC(=O)/N=C/c1c(NCc2ccccc2)nc2c(C)cccn2c1=O", "Potency": "inconclusive: 28.2 µM [inhibitor, partial curve]"},
      {"compound": "Cc1cccn2c(=O)c(/C=C(\\C#N)C(N)=O)c(Oc3ccccc3)nc12", "Potency": "inconclusive: 28.2 µM [inhibitor, partial curve]"},
      {"compound": "CC(=O)Nc1cccc(Nc2nc(-c3ccccc3F)nc3ccccc23)c1", "Potency": "inconclusive: 25.1 µM [inhibitor, partial curve]"},
      {"compound": "CCC1=[N+](CC(=O)c2ccc(C)cc2)CCn2c(C)ccc21", "Potency": "inconclusive: 35.5 µM [inhibitor, single point]"},
      {"compound": "CN(c1ccccc1)S(=O)(=O)c1ccc(NC(=O)c2ccc(-c3ccccc3)cc2)cc1", "Potency": "inconclusive: 39.8 µM [inhibitor, single point]"},
      {"compound": "O=c1c2sc(-c3ccccc3)cc2nc2n1CCC2", "Potency": "inconclusive: 35.5 µM [inhibitor, single point]"},
      {"compound": "CSc1ccccc1NC(=O)COc1ccccc1Cl", "Potency": "inconclusive: 35.5 µM [inhibitor, single point]"},
      {"compound": "COc1ccc(-c2nc3c4c(ncn3n2)-c2ccccc2CC42CCCC2)cc1", "Potency": "inconclusive: 3.55 µM [inhibitor, single point]"},
      {"compound": "CCn1c(SCc2ccccc2)nnc1-c1cccnc1", "Potency": "inconclusive: 22.4 µM [inhibitor, partial curve]"},
      {"compound": "Cc1nc2ccccc2c(C)c1C(=O)c1ccc(F)cc1", "Potency": "inconclusive: 31.6 µM [inhibitor, partial curve]"},
      {"compound": "COCCn1c(C)cc(/C=C2/SC(=O)N(C(C)C(=O)OC)C2=O)c1C", "note": "(stereo not drawn)", "Potency": "inactive"},
      {"compound": "Cc1ccc(N2C(=O)[C@@H]3C(c4cccnc4)=NO[C@@H]3C2=O)cc1", "Potency": "inconclusive: 8.91 µM [inhibitor, partial curve]"},
      {"compound": "O=C(O)C1CCCN1S(=O)(=O)c1ccc(Br)s1", "note": "(stereo not drawn) (tested in a mixture with another compound)", "Potency": "inactive"}
    ]}
  ]
}
